The other results are listed elsewhere or left out.
Assays:
Test in all cases: glycan array binding signal (z-score within array); higher = stronger binding
Settings in all cases: glycan notation: IUPAC condensed, linker removed
[1] = biological target: Gal(b1-2)Gal
Procedure, shortened: (§1)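 The binding signal is a Z-score computed within each array. Data were drawn from 3228 arrays in the Consortium for Functional Glycomics database, restricted to those with a known protein sequence. Scores were averaged over arrays of the same protein sequence at different concentrations or buffers, and over linkers, and negative values can be taken as non-binding.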

[2] = biological target: Gal(b1-3)Gal
Procedure, shortened: as §1

[3] = biological target: Gal(b1-3)Gal(b1-4)GlcNAc
Procedure, shortened: as §1

[4] = biological target: Gal(b1-3)GalNAc
Procedure, shortened: as §1

[5] = biological target: Gal(b1-3)GalNAc(a1-3)[Fuc(a1-2)]Gal(b1-4)Glc
Procedure, shortened: as §1

[6] = biological target: Gal(b1-3)GalNAc(a1-3)[Fuc(a1-2)]Gal(b1-4)GlcNAc
Procedure, shortened: as §1

[7] = biological target: Gal(b1-3)GalNAc(b1-3)Gal
Procedure, shortened: as §1

[8] = biological target: Gal(b1-3)GalNAc(b1-3)Gal(a1-4)Gal(b1-4)Glc
Procedure, shortened: as §1

[9] = biological target: Gal(b1-3)GalNAc(b1-4)Gal(b1-4)Glc
Procedure, shortened: as §1

[10] = biological target: Gal(b1-3)GalNAc(b1-4)[Neu5Ac(a2-3)]Gal(b1-4)Glc
Procedure, shortened: as §1

[11] = biological target: Gal(b1-3)GlcNAc
Procedure, shortened: as §1

[12] = biological target: Gal(b1-3)GlcNAc(a1-3)Gal(b1-4)GlcNAc
Procedure, shortened: as §1

[13] = biological target: Gal(b1-3)GlcNAc(a1-6)Gal(b1-4)GlcNAc
Procedure, shortened: as §1

[14] = biological target: Gal(b1-3)GlcNAc(b1-2)Man
Procedure, shortened: as §1

[15] = biological target: Gal(b1-3)GlcNAc(b1-2)Man(a1-3)[Gal(b1-3)GlcNAc(b1-2)Man(a1-6)]Man(b1-4)GlcNAc(b1-4)GlcNAc
Procedure, shortened: as §1

[16] = biological target: Gal(b1-3)GlcNAc(b1-2)Man(a1-3)[Gal(b1-3)GlcNAc(b1-2)Man(a1-6)]Man(b1-4)GlcNAc(b1-4)[Fuc(a1-6)]GlcNAc
Procedure, shortened: as §1

[17] = biological target: Gal(b1-3)GlcNAc(b1-2)Man(a1-3)[GlcNAc(b1-4)][Gal(b1-3)GlcNAc(b1-2)Man(a1-6)]Man(b1-4)GlcNAc(b1-4)GlcNAc
Procedure, shortened: as §1

[18] = biological target: Gal(b1-3)GlcNAc(b1-2)[Gal(b1-3)GlcNAc(b1-6)]Man(a1-6)[Gal(b1-3)GlcNAc(b1-2)Man(a1-3)]Man(b1-4)GlcNAc(b1-4)GlcNAc
Procedure, shortened: as §1

[19] = biological target: Gal(b1-3)GlcNAc(b1-3)Gal(b1-3)GlcNAc
Procedure, shortened: as §1

[20] = biological target: Gal(b1-3)GlcNAc(b1-3)Gal(b1-4)Glc
Procedure, shortened: as §1

[21] = biological target: Gal(b1-3)GlcNAc(b1-3)Gal(b1-4)GlcNAc
Procedure, shortened: as §1

[22] = biological target: Gal(b1-3)GlcNAc(b1-3)Gal(b1-4)GlcNAc(b1-2)Man(a1-3)[Gal(b1-3)GlcNAc(b1-3)Gal(b1-4)GlcNAc(b1-2)Man(a1-6)]Man(b1-4)GlcNAc(b1-4)GlcNAc
Procedure, shortened: as §1

[23] = biological target: Gal(b1-3)GlcNAc(b1-3)Gal(b1-4)GlcNAc(b1-2)[Gal(b1-3)GlcNAc(b1-3)Gal(b1-4)GlcNAc(b1-6)]Man(a1-6)[Gal(b1-3)GlcNAc(b1-3)Gal(b1-4)GlcNAc(b1-2)Man(a1-3)]Man(b1-4)GlcNAc(b1-4)[Fuc(a1-6)]GlcNAc
Procedure, shortened: as §1

[24] = biological target: Gal(b1-3)GlcNAc(b1-3)Gal(b1-4)GlcNAc(b1-3)Gal(b1-4)GlcNAc(b1-2)[Gal(b1-3)GlcNAc(b1-3)Gal(b1-4)GlcNAc(b1-3)Gal(b1-4)GlcNAc(b1-6)]Man(a1-6)[Gal(b1-3)GlcNAc(b1-3)Gal(b1-4)GlcNAc(b1-3)Gal(b1-4)GlcNAc(b1-2)Man(a1-3)]Man(b1-4)GlcNAc(b1-4)[Fuc(a1-6)]GlcNAc
Procedure, shortened: as §1

[25] = biological target: Gal(b1-3)GlcNAc(b1-3)Gal(b1-4)GlcNAc(b1-6)[Gal(b1-3)GlcNAc(b1-3)]Gal(b1-4)Glc
Procedure, shortened: as §1

[26] = biological target: Gal(b1-3)GlcNAc(b1-3)Gal(b1-4)[Fuc(a1-3)]GlcNAc
Procedure, shortened: as §1

[27] = biological target: Gal(b1-3)GlcNAc(b1-3)Gal(b1-4)[Fuc(a1-3)]GlcNAc(b1-6)[Gal(b1-3)GlcNAc(b1-3)]Gal(b1-4)Glc
Procedure, shortened: as §1

[28] = biological target: Gal(b1-3)GlcNAc(b1-3)GalNAc
Procedure, shortened: as §1

[29] = biological target: Gal(b1-3)GlcNAc(b1-6)Gal(b1-4)GlcNAc
Procedure, shortened: as §1

[30] = biological target: Gal(b1-3)GlcNAc(b1-6)GalNAc
Procedure, shortened: as §1

[31] = biological target: Gal(b1-3)GlcNAc(b1-6)[Gal(b1-3)]GalNAc
Procedure, shortened: as §1

[32] = biological target: Gal(b1-3)GlcNAc6S
Procedure, shortened: as §1

[33] = biological target: Gal(b1-3)[Fuc(a1-4)]GlcNAc
Procedure, shortened: as §1

[34] = biological target: Gal(b1-3)[Fuc(a1-4)]GlcNAc(b1-2)Man
Procedure, shortened: as §1

[35] = biological target: Gal(b1-3)[Fuc(a1-4)]GlcNAc(b1-2)Man(a1-3)[Gal(b1-3)[Fuc(a1-4)]GlcNAc(b1-2)Man(a1-6)]Man(b1-4)GlcNAc(b1-4)[Fuc(a1-6)]GlcNAc
Procedure, shortened: as §1

[36] = biological target: Gal(b1-3)[Fuc(a1-4)]GlcNAc(b1-3)Gal(b1-3)[Fuc(a1-4)]GlcNAc
Procedure, shortened: as §1

[37] = biological target: Gal(b1-3)[Fuc(a1-4)]GlcNAc(b1-3)Gal(b1-4)[Fuc(a1-3)]GlcNAc
Procedure, shortened: as §1

B1: OGAA (protein)
chain: MVQKESQATLEERESELSSNPAASAGASLEPPAAPAPGEDNPAGAGGAAVAGAAGGARRFLCGVVEGFYGRPWVMEQRKELFRRLQKWELNTYLYAPKDDYKHRMFWREMYSVEEAEQLMTLISAAREYEIEFIYAISPGLDITFSNPKEVSTLKRKLDQVSQFGCRSFALLFADIDHNMCAADKEVFSSFAHAQVSITNEIYQYLGEPETFLFCPTEYCGTFCYPNVSQSPYLRTVGEKLLPGIEVLWTGPKVVSKEIPVESIEEVSKIIKRAPVIWDNIHANDYDQKRLFLGPYKGRSTELIPRLKGVLTNPNCEFEANYVAIHTLATWYKSNMNGVRKDVVMTDSEDSTVSIQIKLENEGSDEDIETDVLYSPQMALKLALTEWLQEFGVPHQY
glycan array binding signal (z-score) [1]: -0.04
glycan array binding signal (z-score) [2]: -0.099
glycan array binding signal (z-score) [3]: -0.067
glycan array binding signal (z-score) [4]: -0.085
glycan array binding signal (z-score) [5]: -0.068
glycan array binding signal (z-score) [6]: -0.126
glycan array binding signal (z-score) [7]: -0.119
glycan array binding signal (z-score) [8]: -0.077
glycan array binding signal (z-score) [9]: -0.032
glycan array binding signal (z-score) [10]: -0.101
glycan array binding signal (z-score) [11]: -0.061
glycan array binding signal (z-score) [12]: -0.05
glycan array binding signal (z-score) [13]: -0.118
glycan array binding signal (z-score) [14]: -0.105
glycan array binding signal (z-score) [15]: -0.07
glycan array binding signal (z-score) [16]: 0.031
glycan array binding signal (z-score) [17]: -0.026
glycan array binding signal (z-score) [18]: -0.044
glycan array binding signal (z-score) [19]: -0.103
glycan array binding signal (z-score) [20]: -0.008
glycan array binding signal (z-score) [21]: -0.072
glycan array binding signal (z-score) [22]: -0.086
glycan array binding signal (z-score) [23]: 0.027
glycan array binding signal (z-score) [24]: 0.078
glycan array binding signal (z-score) [25]: -0.062
glycan array binding signal (z-score) [26]: -0.103
glycan array binding signal (z-score) [27]: -0.06
glycan array binding signal (z-score) [28]: -0.12
glycan array binding signal (z-score) [29]: -0.127
glycan array binding signal (z-score) [30]: -0.082
glycan array binding signal (z-score) [31]: -0.059
glycan array binding signal (z-score) [32]: -0.088
glycan array binding signal (z-score) [33]: -0.065
glycan array binding signal (z-score) [34]: 0.177
glycan array binding signal (z-score) [35]: 0.357
glycan array binding signal (z-score) [36]: -0.106
glycan array binding signal (z-score) [37]: -0.068
